Some of the results follow. The full chains were built here from the parent and the listed change. Values near 0.05 are background.
B1: TEV protease; numbered along this chain (parent)
chain: MGESLFKGPRDYNPISSSICHLTNESDGHTTSLYGIGFGPFIITNKHLFRRNNGTLVVQSLHGVFKVKDTTTLQQHLVDGRDMIIIRMPKDFPPFPQKLKFREPQREERICLVTTNFQTKSMSSMVSDTSCTFPSGDGIFWKHWIQTKDGQCGSPLVSTRDGFIVGIHSASNFTNTNNYFTSVPKNFMELLTNQEAQQWVSGWRLNADSVLWGGHKVFMVKPEEPFQPVKEATQL

Variants of: B1
Experiment: raw area under fraction-flipped curve 0-4 h after induction (AUC4h, not background-subtracted), DNA-recorder readout of cleavage of the substrate (dimensionless); higher = more cleavage of the substrate by the protease variant
Conditions: temperature: 34 °C; time window: 0-4 h after rhamnose induction
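Further: Bxb1 expression induced with 0.2% (w/v) L-rhamnose at OD600 near 0.5, cultures sampled hourly, flipped fraction per protease–substrate barcode pair counted by paired-end Illumina sequencing.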

Row | Variant | area with substrate ENLDFQS | area with substrate ENLFFQS | area with substrate ENLHFQS | area with substrate ENLLFQS | area with substrate ENLMFQS | area with substrate ENLPFQS | area with substrate ENLSFQS | area with substrate ENLIFQS | area with substrate ENLEFQS | area with substrate ENLKFQS | area with substrate ENLNFQS | area with substrate ENLQFQS | area with substrate ENLVFQS | area with substrate ENLGFQS | area with substrate ENLWFQS | area with substrate ENLRFQS | area with substrate ENLTFQS
1 | MGESLFKGPRDYNPISSSICHLTNESDGHTTSLYGIGFGPFIITNKHLFRRNNGTLVVQSLHGVFKVKDTTTLQQHLVDGRDMIIIRMPKDFPPFPQKLKFREPQREERICLVTTNFQTKSMSSMVSDTSCTFPSGDGIFWKHWIQTKDGQCGSPLVSTRDGFIVGIHSASNFTNTNNYFTSVPKNFMELLTNQEAQQWVSGWRLNADSVLWGGHKVFMVKPEEEFQPVKEATQL [P225E] | 0.0565 | 0.106 | 0.0735 | 0.0425 | 0.0766 | 0.0638 | 0.0742 |  |  |  |  |  |  |  |  |  | 
2 | MGESLFKGPRDYNPISSSICHLTNESDGHTTSLYGIGFGPFIITNKHLFRRNNGTLVVQSLHGVFKVKDTTTLQQHLVDGRDMIIIRMPKDFPPFPQKLKFREPQREERICLVTTNFQTKSMSSMVSDTSCTFPSGDGIFWKHWIQTKDGQCGSPLVSTRDGFIVGIHSASNFTNTNNYFTSVPKNFMELLTNQEATQWVSGWRLNADSVLWGGHKVFMVKPEEPFQPVKEATQL [Q197T] | 0.0681 | 0.105 |  | 0.0668 |  | 0.0546 |  | 0.0634 |  |  |  |  |  |  |  |  | 
3 | MGESLFKGPRDYNPISSSICHLTNESDGHTTSLYGIGFGPFIITNKHLFRRNNGTLVVQSLHGVFKVKDTTTLQQHLVDGRDMIIIRMPKDFPPFPQKLKFREPQREERICLVTTNFQTKSMSSMVSDTSCTFPSGDGIFWKHWIQTKDGQCGSPLVSTRDGFIVGIHSASNFTNTNNYFTSVPKNFMELLTNQEAQQWVSGWRLNADSVLWGGPKVFMVKPEEPFQPVKEATQL [H215P] | 0.0618 | 0.0597 | 0.0614 | 0.0574 | 0.064 |  | 0.0628 | 0.058 | 0.0554 | 0.0661 | 0.0577 | 0.0668 | 0.0816 |  |  |  | 
4 | MGESLFKGPRDYNPISSSICHLTNESDGHTTSLYGIGFGPFIITNKHLFRRNNGTLVVQSLHGVFKVKDTTTLQQHLVDGRDMIIIRMPKDFPPFPQKLKFREPQREERICLVTTNFQTKSMSSMVSDTSCTFPSGDGIFWKHWIQTKDGQCGSPLVSTRDGFIVGIHSASNFTNTNNYFTSVPKNFMELLTNQEAQQWVSGIRLNADSVLWGGHKVFMVKPEEPFQPVKEATQL [W203I] | 0.0345 | 0.0585 | 0.0671 | 0.0631 |  |  | 0.0653 | 0.0609 | 0.0482 | 0.0593 | 0.0572 |  |  |  |  |  | 
5 | MGESLFKGPRDYNPISSSICHLTNESDGHTTSLYGIGFGPFIITNKHLFRRNNGTLVVQSLHGVFKVKDTTTLQQHLVDGRDMIIIRMPKDFPPFPQKLKFREPQREERICLVTTNFQTKSMSSMVSDTSCTFPSGDGIFWKHWIQTKDGQCGSPLVSTRDGFIVGIHSASNFTNTNNYFTSVPKNFMELLTNQEAQQWVSGWRLNHDSVLWGGHKVFMVKPEEPFQPVKEATQL [A207H] | 0.0507 |  | 0.0841 | 0.0613 |  | 0.0664 | 0.0702 | 0.0913 |  |  | 0.0501 | 0.0622 |  | 0.0799 | 0.0632 |  | 
6 | MGESLFKGPRDYNPISSSICHLTNESDGHTTSLYGIGFGPFIITNKHLFRRNNGTLVVQSLHGVFKVKDTTTLQQHLVDGRDMIIIRMPKDFPPFPQKLKFREPQREERICLVTTNFQTKSMSSMVSDTSCTFPSGDGIFWKHWIQTKDGQCGSPLVSTRDGFIVGIHSASNFTNTNNYFTSVPKNFMELLTNQEAQQWVSGWRLNADSVLWGGHKIFMVKPEEPFQPVKEATQL [V217I] | 0.066 | 0.114 | 0.0642 |  | 0.0692 | 0.0793 |  |  |  | 0.0794 | 0.0648 | 0.0864 |  | 0.0723 |  | 0.0735 | 0.0975
7 | MGESLFKGPRDYNPISSSICHLTNESDGHTTSLYGIGFGPFIITNKHLFRRNNGTLVVQSLHGVFKVKDTTTLQQHLVDGRDMIIIRMPKDFPPFPQKLKFREPQREERICLVTTNFQTKSMSSMVSDTSCTFPSGDGIFWKHWIQTKDGQCGSPLVSTRDGFIVGIHSASNFTNTNNYFTSVPKNFMELLTNQEAQQWVSGWRLNADSVLWGGHKSFMVKPEEPFQPVKEATQL [V217S] | 0.079 | 0.0802 | 0.0593 |  | 0.0633 | 0.0448 | 0.06 | 0.0511 | 0.074 |  | 0.0592 | 0.0604 |  |  | 0.0596 | 0.0615 | 
8 | MGESLFKGPRDYNPISSSICHLTNESDGHTTSLYGIGFGPFIITNKHLFRRNNGTLVVQSLHGVFKVKDTTTLQQHLVDGRDMIIIRMPKDFPPFPQKLKFREPQREERICLVTTNFQTKSMSSMVSDTSCTFPSGDGIFWKHWIQTKDGQCGSPLVSTRDGFIVGIHSASNFTNTNNYFTSVPKNFMELLTNQEAQQWVSGWRLNADSVLWGGHKTFMVKPEEPFQPVKEATQL [V217T] | 0.0845 | 0.119 | 0.077 |  |  | 0.0593 |  | 0.0602 |  | 0.0642 |  | 0.0854 |  |  | 0.0538 | 0.0507 | 
9 | MGESLFKGPRDYNPISSSICHLTNESDGHTTSLYGIGFGPFIITNKHLFRRNNGTLVVQSLHGVFKVKDTTTLQQHLVDGRDMIIIRMPKDFPPFPQKLKFREPQREERICLVTTNFQTKSMSSMVSDTSCTFPSGDGIFWKHWIQTKDGQCGSPLVSTRDGFIVGIHSASNFTNTNNYFTSVPKNFMELSTNQEAQQWVSGWRLNADSVLWGGHKVFMVKPEEPFQPVKEATQL [L191S] | 0.0234 | 0.0556 |  |  |  |  | 0.0521 |  |  | 0.0669 |  |  |  |  |  | 0.0855 | 
10 | MGESLFKGPRDYNPISSSICHLTNESDGHTTSLYGIGFGPFIITNKHLFRRNNGTLVVQSLHGVFKVKDTTTLQQHLVDGRDMIIIRMPKDFPPFPQKLKFREPQREERICLVTTNFQTKSMSSMVSDTSCTFPSGDGIFWKHWIQTKDGQCGSPLVSTRDGFIVGIHSASNFTNTNNYFTSVPKNFMELLTNQEAQQWVSGWRLNADSVLWGGHKVMMVKPEEPFQPVKEATQL [F218M] | 0.0685 |  | 0.0546 | 0.06 |  |  | 0.0596 |  |  | 0.0507 | 0.0697 |  |  |  | 0.0704 |  | 

From the supplement of paper PMC12217912
